This note sets out measurements from PMC3563590.

Sequences of proteins named here, by UniProt entry; tags and fusion partners are left off. A change or cut given only in a name is not applied to a line headed by its entry.
UniProt Q13526: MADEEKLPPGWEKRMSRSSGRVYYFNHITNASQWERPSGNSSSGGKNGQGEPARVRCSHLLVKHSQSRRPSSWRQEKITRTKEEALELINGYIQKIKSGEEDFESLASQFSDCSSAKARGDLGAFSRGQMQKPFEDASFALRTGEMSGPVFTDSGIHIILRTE
UniProt P03372: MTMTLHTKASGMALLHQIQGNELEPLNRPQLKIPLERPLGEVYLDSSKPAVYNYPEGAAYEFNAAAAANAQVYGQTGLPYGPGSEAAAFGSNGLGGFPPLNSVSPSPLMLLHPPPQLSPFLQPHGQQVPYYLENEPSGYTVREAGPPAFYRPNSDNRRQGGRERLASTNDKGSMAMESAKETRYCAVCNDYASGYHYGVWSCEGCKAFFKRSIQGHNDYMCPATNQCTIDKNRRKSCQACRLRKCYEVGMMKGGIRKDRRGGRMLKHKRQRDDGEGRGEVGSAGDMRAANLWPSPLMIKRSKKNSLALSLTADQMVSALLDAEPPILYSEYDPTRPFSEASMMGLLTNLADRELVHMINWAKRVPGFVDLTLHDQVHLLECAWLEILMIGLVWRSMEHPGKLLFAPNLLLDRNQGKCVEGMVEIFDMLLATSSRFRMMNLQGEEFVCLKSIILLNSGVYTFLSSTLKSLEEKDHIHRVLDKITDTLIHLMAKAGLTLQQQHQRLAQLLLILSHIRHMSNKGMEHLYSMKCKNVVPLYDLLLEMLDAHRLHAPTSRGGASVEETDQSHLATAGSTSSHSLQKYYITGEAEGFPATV

The target in experiment [1] is GST-Pin1 fusion protein (human) (UniProt Q13526). As to the kind of experiment: pull-down; 10 ug GST or GST-Pin1 on glutathione agarose beads with 1 mg lysate of 293FT cells transfected with His-tagged ERalpha domains, blot with anti-6xHis; also 293FT cells with shRNA against CDK1, CDK2 or CDK4 (less CD domain with shRNA CDK2); only the target purified.
Experiment [2] has the same target. Nature of the experiment: pull-down; data not shown: GST-Pin1 with lysates of MCF7 cells treated with the Her2 inhibitor AG825 or the Mek1/2 inhibitor U0126; only the target purified.
The target of experiment [3] is Peptidylprolyl isomerase 1 (Pin1), endogenous in MCF7 cells (human (endogenous in MCF7)) (UniProt Q13526). Nature of the experiment: co-IP; MCF7 lysate (20 mM Tris HCl pH 8, 137 mM NaCl, 10% glycerol, 1% NP40, 2 mM EDTA), 1 mg protein, 4 ug anti-Pin1 overnight at 4 C, protein A/G beads, blot for ERalpha; serum-starved cells treated with estradiol or ethanol for 45 min.

For experiment [4], the target named is GST-Pin1 fusion protein (human) (UniProt Q13526). As to the kind of experiment: pull-down; 10 ug GST fusion protein on glutathione agarose beads with 1 mg MCF7 lysate, blot for ERalpha; cells without FBS and estradiol unless indicated; also cells treated with LY294002 for 16 hours, with or without FBS (marked reduction); only the target purified.

No constants are given. Whether binding was seen depends on the method and setting. In cells and extracts the contact can be indirect. Some entries that bind do so weakly or less than the wild type.

On to “ERalpha His-EF (EF domain with C-terminal histidine tag) (from UniProt P03372 301-595) (domain or fragment)”, for which, in experiment [1], the binding entry is “no binding”.
In the case of “ERalpha His-CD (CD domain with C-terminal histidine tag) (from UniProt P03372 179-303) (domain or fragment)”, in experiment [1], the binding result is “binds”.
As for “ERalpha His-AB (domains A/B with C-terminal histidine tag) (from UniProt P03372 1-181) (domain or fragment)”, the binding result in experiment [1] is given as “no binding”.
Turning to “Estrogen receptor alpha (ERalpha), endogenous in MCF7 cells (from UniProt P03372 1-595)”, the binding entry in experiment [2], in experiment [3] and in experiment [4] was “binds” in each case.
